From PubChem BioAssay AID624296 (National Center for Advancing Translational Sciences (NCATS), 2012)
Hit rate of the full screen: of about 350,000 compounds, about 9,900 (2.8%) were called active. The shares of active, inactive and inconclusive entries below differ from those in the screen. The call rests on the fitted dose curve; in most records, active means well fitted activation curve with a large enough effect; inconclusive means small, poorly fitted or top-dose-only effect; inactive means no such curve, though single readings can be large or run the other way. Potencies of inconclusive entries are left out as doubtful fits.

Assay: A quantitative high throughput screen for small molecules that induce DNA re-replication in MCF 10a normal breast cells. Further: nearly all actives have a fitted effect of over 50% in size.
Settings: MCF 10A DNA re-replication, Hoechst nuclear intensity, 48 h; series mostly up to 46.1 µM
Potency means the concentration at half of the fitted maximal effect; tags describe the fitted curve by direction and shape.

Compound	Potency
COC(=O)c1c(C)[nH]c(C(=O)OCC(=O)c2ccc(C)s2)c1C	inactive
Cn1nccc1C(=O)NC1CCCc2c1cnn2-c1ccccc1F (configuration not stated)	inactive
CCc1ccccc1NC(=S)N(CCN1CCOCC1)Cc1ccccc1F	inactive
Cc1cccc(OCCCC(=O)Nc2ccc(N3CCOCC3)cc2)c1	inconclusive [activator, single point]
O=c1c2sc3nc(N4CCOCC4)c4c(c3c2ncn1-c1ccccc1)CCCC4	inactive
Cc1cc(N/N=C2\CC(C)CC(C)(C)C2)nc2ccccc12 (configuration not stated)	inactive
COc1cccc(-c2nnc(NC(=O)c3ccc4ncsc4c3)o2)c1	active: 6.51 µM
O=C(Nc1cccc(S(=O)(=O)N2CCCCC2)c1)C1CC(=O)N(Cc2ccccc2)C1 (configuration not stated)	inactive
Cc1ccc(C)c(Cn2nc(-c3ccccc3)ccc2=O)c1	inactive
Cc1c(N2C(=O)/C(=C\C3CC=CCC3)SC2=S)c(=O)n(-c2ccccc2)n1C (configuration not stated)	inconclusive [activator, single point]
Cc1c(C(=O)NNC(=O)c2csc(N3CCOCC3)n2)oc2ccccc12	active: 14.6 µM
COc1ccc(/C=C/c2cc(C(F)(F)F)[nH]c(=O)n2)cc1OC	inconclusive [activator, single point]
COc1ccccc1NC(=O)CSc1nnc(CC(=O)Nc2ccccc2C)n1C	inactive
Cc1ccc(NC(=S)N2CCC(NC(=O)C3CCCCC3)CC2)cc1C	inconclusive [activator, full curve, poor fit]
CCCCCCCCC(=O)O	inconclusive [activator, single point]
CCC(C)(C)C1CCc2c(sc(N)c2C(N)=O)C1 (configuration not stated)	inconclusive [activator, single point]
COc1ccc(OC)c(NC(=O)Nc2cccc3ccccc23)c1	inconclusive [activator, full curve]
COc1ccc(-c2cn(Cc3ccc(C(N)=O)cc3)c(CCN)n2)cc1	inactive
CCCO/N=C1/C(=O)N(c2ccccc2)c2ccccc21	inconclusive [activator, single point]
CCC(=O)N1CCN(c2nc3ccccc3s2)CC1	inactive
Nc1nc2ccc(C(=O)NC3CCCCC3)cc2s1	inconclusive [activator, partial curve, poor fit]
C=C(C)C1Cc2c(C)nn(-c3cccc4ccccc34)c2C1 (configuration not stated)	inconclusive [activator, single point]
O=C(N/N=C/c1ccccn1)c1cc(-c2ccc(Cl)s2)[nH]n1	inactive
O=C(CN1CCCCC1)Nc1cc(Cl)ccc1Cl	inactive
CCN(CC)CCNc1ncnc2c1sc1nc(N3CCCC3)c3c(c12)CC(C)(C)OC3	active: 20.6 µM
NC(=O)CC(NC(=O)c1ccc(Br)cc1)c1ccc(N2CCCCCCC2)c([N+](=O)[O-])c1 (configuration not stated)	inactive

Compound	Potency
O=C(COC(=O)c1ccc(F)cc1F)Nc1ncccn1	inconclusive [activator, partial curve]
CC1CCCCN1Cc1nc2c(c(=O)n(C)c(=O)n2C)n1Cc1c(F)cccc1Cl (configuration not stated)	inactive
O=C(NCCSCc1ccccc1)c1ccc(Cl)c(S(=O)(=O)N2CCOCC2)c1	inactive
COc1cccc2c(=O)c(C(=O)O)c[nH]c12	inconclusive [activator, single point]
CC(NC(=O)Nc1ccc(F)cc1)C(c1cccs1)N1CCCC1 (configuration not stated)	inactive
Cc1nc(-c2c(C(F)(F)F)noc2-c2ccc(O)cc2O)cs1	inactive
Cc1ccccc1-c1nc(C(=O)NCC2CCCO2)cc2c1[nH]c1ccccc12 (configuration not stated)	inconclusive [activator, partial curve, poor fit]
Cc1ccc(C)c(NC(=O)CSc2nnc(C)c(=O)n2N)c1	inconclusive [activator, full curve, poor fit]
O=C(COc1ccccc1-c1ccccc1)N/N=C/c1ccc2ccccc2c1	inconclusive [activator, full curve, poor fit]
CCN(CC)c1ccc(C(=O)OCC(=O)Nc2cc3oc4ccccc4c3cc2OC)cc1	inconclusive [activator, partial curve, poor fit]
O=[N+]([O-])c1ccc(COc2ccccc2/C=N/O)cc1	inconclusive [activator, partial curve, poor fit]
CC(C(=O)Nc1cc([N+](=O)[O-])ccc1Cl)N1CCN(c2ccccc2O)CC1 (configuration not stated)	inconclusive [activator, single point]
COc1cc(/C=C/C(=O)OCC(=O)NC(=O)NC23CC4CC(CC(C4)C2)C3)ccc1OCC#N	inconclusive [activator, full curve, poor fit]
C1=CCN(Cc2ccccc2)C1	inactive
Cn1c(N2CCCC2)nc2c1c(=O)[nH]c(=O)n2C	inactive
N#Cc1cccc(S(=O)(=O)NCCOc2ccccc2F)c1	inactive
COc1ccc(C(=O)c2cc3ccc(O)cc3oc2=O)cc1	inconclusive [activator, partial curve, poor fit]
CCOc1ccc(/C=N/NC(=O)Cc2ccccc2)cc1CN1CC2CC(C1)c1cccc(=O)n1C2 (configuration not stated)	inconclusive [activator, single point]
COc1ccc(C2CN=NC23CCCc2ccccc2C3=O)cc1 (configuration not stated)	active: 18.4 µM
Cc1noc(C)c1COc1ccccc1C(=O)Nc1ccc(C(N)=O)cc1	inactive
COC(=O)C1=C(C)N(CCc2ccccc2)C(=O)/C1=C\c1ccco1	inconclusive [activator, single point]
CCCCNS(=O)(=O)c1ccc2nc(-c3cccnc3)cc(C(=O)NC(C)C)c2c1	inconclusive [activator, partial curve, poor fit]
CC[N+]1=C(C)C(C)(C)c2cc(C)ccc21	inconclusive [activator, single point]
CC(C)C[C@H]1CN=C(N(C)C)N1CC1CCCC1	inconclusive [activator, full curve, poor fit]
COc1ccc(/C(C)=N/Nc2nc3ccccc3nc2C)cc1OC	inactive
CC(C)NC(=S)N(C)C1(c2ccccc2Cl)CCCCC1=O (configuration not stated)	inactive

Compound	Potency
Oc1ccc(/C=N/N(Cc2ccccc2)c2ccccc2)cc1	inconclusive [activator, single point]
CCOC(=O)C(=Cc1ccccc1OC)C(=O)OCC	active: 14.6 µM
Cc1ccc(-c2cccc([C@H]3[C@@H]4C=CC[C@@H](C)[C@@H]4C(=O)N3Cc3ccccc3)c2)cc1	inconclusive [activator, partial curve, poor fit]
CSc1cccc(NC(=O)C2CCCN(S(=O)(=O)c3cccs3)C2)c1 (configuration not stated)	inconclusive [activator, single point]
O=C(N/N=C1\CCCCc2ccccc21)c1ccccn1	inactive
Oc1ccccc1C1=Nc2ccccc2N=C(c2cccs2)C1	inconclusive [activator, single point]
Cc1ccccc1-n1c(N)cc(=O)[nH]c1=S	inactive
COc1ccc(CNC(=O)N2CCc3ccccc3C2)cc1Cl	inactive
COc1ccccc1NC(=O)C1CCCN(S(=O)(=O)c2c(C)noc2C)C1 (configuration not stated)	inactive
O=C(Nc1ccc(N2CCN(C(=O)c3ccccc3)CC2)cc1)c1cccs1	inactive
COC(=O)C(NC(=O)CCC(=O)NC(C(=O)OC)c1ccccc1)c1ccccc1 (configuration not stated)	inactive
CCOc1ccccc1NC(=O)N1CCC(C(=O)c2ccc(F)cc2)CC1	inconclusive [activator, single point]
COC(=O)C1=CN(Cc2ccc(OC)c(OC)c2)C=C(C(=O)OC)C1c1cccc(F)c1	inconclusive [activator, single point]
COc1ccc(CNC(=O)CN2C(=O)NC3(CCCc4sccc43)C2=O)cc1 (configuration not stated)	inactive
Cc1ccc(C)c(OCCn2cc(/C=C(\C#N)C(=O)NCc3ccco3)c3ccccc32)c1	inconclusive [activator, partial curve, poor fit]
CCOC(=O)[C@@H]1[C@H]2COc3cc(OC)ccc3[C@@H]2N2C(=O)N(c3cccc(C)c3)C(=O)[C@@]12C	inconclusive [activator, single point]
COC(=O)c1ccc(S(=O)(=O)N(C2CCCCC2)C2CCCCC2)n1C	inactive
CCc1cc(C(=O)O)c(NC(=O)c2cc(OC)c(OC)c(OC)c2)s1	inconclusive [activator, partial curve, poor fit]
O=C(NCC1CCCCC1)c1ccccc1[N+](=O)[O-]	inactive
CC(C)CN(CCOc1cccc(N2C(=O)C3=C(CCCC3)C2=O)c1)CC(C)C	inconclusive [activator, single point]
CCn1c(C)nc2cc(C(=O)N/N=C/c3ccc(O)c(O)c3O)ccc21	inactive
O=[N+]([O-])c1ccc(/C=N\NS(=O)(=O)c2ccc(F)cc2)o1	inconclusive [activator, single point]
O=C(N/N=C/c1ccncc1)c1ccccn1	inactive
CCCN(CCC)CCNS(=O)(=O)c1ccc2c(c1)CCN2C(=O)C1CCC1	active: 2.59 µM
CCOC(=O)c1c(NC(=O)COc2ccccc2OCC)sc2c1CC(C)(C)NC2(C)C	inconclusive [activator, single point]
